Screen size: about 270,000 compounds; about 620 (0.23%) were called active. Inconclusive means that the source gave no clear call. Such entries were picked first, then a sample of the others. Calls follow the shape of the dose curve; as a rule, active = well fitted inhibition curve with a large enough effect in the polarisation, with a control signal flat (not every such curve was filed as active); inconclusive = small, poorly fitted or top-dose-only effect, or effect the other way, or a change in a side signal; inactive = no such curve, though single readings can be large or run the other way; the % refers to the polarisation. A potency beside an inconclusive call is a rough fit, not a confirmed value. “Side channel” marks fits to a control or component signal instead of the main read-out.
Target: Menin (Homo sapiens) (UniProt O00255)
Assay: qHTS Assay for Inhibitors Targeting the Menin-MLL Interaction in MLL Related Leukemias: Competition With Texas Red Labeled MLL-derived Mutant Peptide; as to FP activity change, negative = inhibition: % of control where 0% means no effect
Conditions: fluorescence polarization; FP activity change, negative = inhibition: at 61.6 µM (top of the series)
Potency is read from the fitted curve at half-maximal effect; tags tell the direction and shape of the fitted curve or compound fluorescence and quenching.

Sequence of UniProt O00255 (O00255 whole entry, looked up): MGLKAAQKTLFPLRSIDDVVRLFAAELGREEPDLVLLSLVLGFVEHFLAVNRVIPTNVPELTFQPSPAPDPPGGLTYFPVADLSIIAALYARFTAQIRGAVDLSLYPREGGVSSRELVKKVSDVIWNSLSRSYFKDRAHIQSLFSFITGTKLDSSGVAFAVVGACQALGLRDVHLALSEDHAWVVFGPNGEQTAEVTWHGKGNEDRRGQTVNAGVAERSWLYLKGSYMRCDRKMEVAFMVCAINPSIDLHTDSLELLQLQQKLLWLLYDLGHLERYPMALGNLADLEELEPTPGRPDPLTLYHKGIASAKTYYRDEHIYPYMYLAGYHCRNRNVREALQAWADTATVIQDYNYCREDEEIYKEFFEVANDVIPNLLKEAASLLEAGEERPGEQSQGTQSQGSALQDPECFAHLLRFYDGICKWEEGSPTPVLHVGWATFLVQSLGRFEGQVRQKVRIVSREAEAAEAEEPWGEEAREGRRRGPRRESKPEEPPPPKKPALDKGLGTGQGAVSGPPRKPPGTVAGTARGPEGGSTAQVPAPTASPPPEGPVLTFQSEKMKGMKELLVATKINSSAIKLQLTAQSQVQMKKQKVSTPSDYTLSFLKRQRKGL

| Compound | Potency | FP activity change, negative = inhibition |
| --- | --- | --- |
| COC(=O)c1c(-c2ccccc2)csc1N | inconclusive: 8.91 µM [quencher, side channel, full curve, poor fit] |  |
| O=C1CC(=O)N(Cc2cccs2)C(=O)N1 |  | inactive: -10.2% |
| CCCN1Cc2cccc(C(=O)NC(CC(=O)OCC)c3ccc(OC(C)C)cc3)c2C1=O (configuration not stated) | inconclusive: 1.78 µM [fluorescent, side channel, full curve, poor fit] |  |
| CC1CN(CCCCOc2cccc(Oc3ccccc3)c2)CC(C)O1 (configuration not stated) | inconclusive: 15.8 µM [inhibitor, partial curve] |  |
| CC(=O)c1c(O)c(C)c(-c2ccccc2)n(-c2ccccc2)c1=O | inconclusive: 39.8 µM [inhibitor, single point] |  |
| O=C(CCCC(=O)c1ccccc1)Nc1ccc(F)cc1 | inconclusive: 39.8 µM [inhibitor, single point] |  |
| O=C(c1ccc(CSc2ccc(Cl)cc2)cc1)N1CCCC1 | inconclusive: 15.8 µM [fluorescent, side channel, partial curve] |  |
| COc1ccc(/C=C2/SC(=O)N(CCC(=O)Nc3ccccc3C(=O)O)C2=S)cc1 | inconclusive: 31.6 µM [quencher, side channel, single point] |  |
| Cc1nn(C)cc1C(N)=O |  | inactive: 3.98% |
| Cc1cc(-n2cccn2)ccc1CN1CCN(C2CCCC2)C(CCO)C1 (configuration not stated) | inconclusive: 12.6 µM [inhibitor, partial curve] |  |
| COc1ccc(C(=O)N/N=C/c2c[nH]c3ccccc23)cc1 | inconclusive: 25.1 µM [quencher, side channel, partial curve] |  |
| C/C(=N\NC(=O)c1cccc(N/N=C(\C)c2ccccc2)c1)c1ccccc1 | inconclusive: 25.1 µM [quencher, side channel, single point] |  |
| COC(c1ccccc1)c1nnc(CCC(=O)N(C)CCc2ccccc2)o1 (configuration not stated) | inconclusive: 31.6 µM [fluorescent, side channel, single point] |  |
| COC(=O)c1ccc(S(=O)(=O)NCCSc2nnc3c4ccccc4n(C)c3n2)cc1 | inconclusive: 28.2 µM [quencher, side channel, single point] |  |
| CCSc1nc2c(sc3ccccc32)c(=O)n1C(C)C | inconclusive: 3.16 µM [fluorescent, side channel, partial curve] |  |
| COC(=O)Nc1ccc(S(=O)(=O)N2CCN(c3ccc(F)cc3)CC2)cc1 | inconclusive: 28.2 µM [quencher, side channel, single point] |  |
| COc1cccc(Nc2nc(-c3ccc(O)cc3)cs2)c1 | inconclusive: 12.6 µM [quencher, side channel, partial curve] |  |
| O=C(NCCC1=CCCCC1)C1CCN(S(=O)(=O)c2ccccc2)CC1 | inconclusive: 25.1 µM [fluorescent, side channel, single point] |  |
| COC(=O)c1cc(NC(=O)CSc2nc(C)cc(=O)[nH]2)cc(C(=O)OC)c1 | inconclusive: 31.6 µM [inhibitor, single point] |  |

| Compound | Potency | FP activity change, negative = inhibition |
| --- | --- | --- |
| CCOc1cc(/C=C2\C(=O)N(c3ccc(C(N)=O)cc3)N=C2C)ccc1OC(=O)c1cccs1 | inconclusive: 15.8 µM [quencher, side channel, partial curve] |  |
| CCOc1ccc(-c2csc(NC(=O)CSC3=NC(=O)CN3C(C)=O)n2)c2ccccc12 |  | inactive: 19.2% |
| COc1ccc(-c2cnnc(N/N=C/c3ccc(O)c(OC)c3)n2)cc1 | inconclusive: 35.5 µM [quencher, side channel, single point] |  |
| O=C(CSc1n[nH]c(-c2ccccc2)n1)NC(=O)NCc1ccco1 | inconclusive: 35.5 µM [quencher, side channel, single point] |  |
| CCCn1c(SCC#N)nc2c(c1=O)C1(CCCC1)Cc1ccccc1-2 | inconclusive: 17.8 µM [fluorescent, side channel, partial curve, poor fit] |  |
| Cc1ccc(OCC(=O)Nc2nnc(S(=O)(=O)N3CCC(C)CC3)s2)cc1 | inconclusive: 12.6 µM [quencher, side channel, partial curve] |  |
| C=C(C)n1c(=O)n(Cc2ccccc2C)c2ccccc21 | inconclusive: 39.8 µM [inhibitor, partial curve] |  |
| CCOc1ccc2nc(NCCCNS(=O)(=O)c3ccc(C)cc3)c(C#N)cc2c1 | inconclusive: 39.8 µM [quencher, side channel, single point] |  |
| Cc1cc(Cl)ccc1OCC(=O)N/N=C/c1ccncc1 | inconclusive: 39.8 µM [inhibitor, single point] |  |
| O=[N+]([O-])c1ccn(-c2nc(-c3cccs3)cc(C(F)(F)F)n2)n1 | inconclusive: 31.6 µM [quencher, side channel, single point] |  |
| CN1c2cccc3cccc(c23)N(C)C1c1cccs1 | inconclusive: 11.2 µM [quencher, side channel, partial curve] |  |
| CC(C)N(Cc1ccccc1)C(=O)CC(=O)N(Cc1ccccc1)C(C)C | inconclusive: 3.16 µM [fluorescent, side channel, partial curve, poor fit] |  |
| COc1ccc(CSCCNC(=S)Nc2ccccc2)cc1Cl | inconclusive: 31.6 µM [quencher, side channel, partial curve] |  |
| CC(C)NC(=S)N=Nc1c(O)[nH]c2ccc([N+](=O)[O-])cc12 | inconclusive: 39.8 µM [quencher, side channel, partial curve, poor fit] |  |
| Cn1cccc1-c1nc2ccc(NC(=O)c3ccc([N+](=O)[O-])cc3)cc2[nH]1 | inconclusive: 17.8 µM [quencher, side channel, partial curve] |  |
| Cc1ccccc1NC(=O)c1cc2ccccc2o1 |  | inactive: 10.7% |
| COc1ccc(N(C)C(=O)c2ccc3c(Cl)c4c(nc3c2)CCCC4)c(OC)c1 | inconclusive: 3.55 µM [fluorescent, side channel, full curve] |  |
| CN1CCc2nc(SCC(=O)Nc3cccc(F)c3)c(C#N)c(-c3cccs3)c2C1 | inconclusive: 12.6 µM [quencher, side channel, partial curve] |  |
| COc1ccc(-c2n(Cc3ccccc3)c3ccccc3[n+]2Cc2ccccc2)cc1 | inconclusive: 2 µM [fluorescent, side channel, full curve, poor fit] |  |

| Compound | Potency | FP activity change, negative = inhibition |
| --- | --- | --- |
| C/C(Cl)=C/Cn1c(SCc2ccc(Cl)cc2)nc2c1c(=O)[nH]c(=O)n2C | inconclusive: 35.5 µM [fluorescent, side channel, single point] |  |
| CCn1c(-c2cc3c(C(F)(F)F)nn(C)c3s2)n[nH]c1=S | inconclusive: 39.8 µM [inhibitor, single point] |  |
| Cc1ccc(NC(=O)c2ccc(Cl)c(N3C(=O)C=CC3=O)c2)cc1 | inconclusive: 35.5 µM [inhibitor, single point] |  |
| O=C(Nc1ccc2c(c1)OCO2)c1c[nH]c(=O)n(-c2ccc(F)cc2)c1=O | inconclusive: 11.2 µM [quencher, side channel, partial curve] |  |
| O=[N+]([O-])c1cc(/C=N/O)ccc1Sc1ccccc1 | inconclusive: 12.6 µM [quencher, side channel, partial curve] |  |
| Fc1ccccc1/C=C1\CCCC2=C1Nc1nnnn1C2c1ccccc1F (configuration not stated) | inconclusive: 14.1 µM [inhibitor, partial curve, poor fit] |  |
| OC[C@@H]1[C@@H](c2ccc(Cl)cc2)C(c2ccccc2)=NN1c1ccccc1 | inconclusive: 14.1 µM [quencher, partial curve] |  |
| O=C(CNCC1CCCO1)Nc1ccc(N2CCCCCC2)cc1 (configuration not stated) | active: 14.1 µM |  |
| COc1cc2ccccc2cc1C(=O)Nc1ccc(NC(=O)c2cccs2)cc1 | inconclusive: 3.16 µM [quencher, side channel, partial curve] |  |
| COC(=O)C(C)Oc1ccc(Oc2nc(Cl)ccc2Cl)cc1 (configuration not stated) | inconclusive: 39.8 µM [fluorescent, side channel, single point] |  |
| CC(C)(C)c1ccc(/C=N/Nc2ccc(C(=O)O)cc2)cc1 | inconclusive: 20 µM [quencher, side channel, partial curve] |  |
| COc1cccc(C(=O)NN/C(C)=C/C(=O)C(F)(F)C(F)(F)C(F)(F)F)c1 | inconclusive: 17.8 µM [quencher, side channel, partial curve] |  |
| O=C(Nc1nc(-c2ccc3c(c2)OCCO3)cs1)c1ccc(S(=O)(=O)N2CCCCC2)cc1 | inconclusive: 20 µM [inhibitor, single point] |  |
| O=C(CCN1C(=O)c2ccccc2S1(=O)=O)Nc1ccc(Cl)cc1 | inconclusive: 28.2 µM [inhibitor, single point] |  |
| N/C(=N\NC(=O)c1ccc(F)cc1)c1cc2ccccc2oc1=O | inconclusive: 31.6 µM [quencher, side channel, single point] |  |
| CC(=O)Nc1ccc(SCC(Cc2ccccc2)N2CCN(CCc3ccccc3)CCC2=O)cc1 (configuration not stated) |  | inactive: 2.11% |
| Cc1oc(-c2ccccc2)nc1CS(=O)CC(=O)N1CCc2ccccc2C1 (configuration not stated) | inconclusive: 15.8 µM [fluorescent, side channel, partial curve] |  |
| Cc1cc(Cl)ccc1OCCCC(=O)Nc1ccc(S(=O)(=O)Nc2ncccn2)cc1 | inconclusive: 11.2 µM [quencher, side channel, partial curve] |  |
| Cc1cc(C)n2c(nc3ccccc32)c1C(=O)NCc1ccccc1 | inconclusive: 25.1 µM [inhibitor, single point] |  |

Source: PubChem BioAssay AID1768 (National Center for Advancing Translational Sciences (NCATS), 2009)
